Results taken from ChEMBL document CHEMBL5308541, “MAIP: An Open-Source Tool to Enrich High-Throughput Screening Output and Identify Novel, Druglike Molecules with Antimalarial Activity” (ACS Med Chem Lett, 2023).
Hit rate of the full screen: of about 150,000 compounds, about 540 (0.36%) showed an effect of 50% or more. Some of the results follow.

The compounds below were run on Plasmodium falciparum (assay: Primary screen in NF54 nanoGlo assay, in single point, at 2uM, 72h; a lower Z score goes with more inhibition). Settings: timepoint 72 hour.
Type: functional, Erythrocyte
For `Cc1cnc2c(C(=O)N3CCN(c4nsc5ccccc45)CC3)cnn2c1`, the “% Inhibition” value was -3% and the Z score was 0.55.
In the case of `Cc1nc(N2CCN(C(=O)[C@@H]3CCCN3C(=O)OC(C)(C)C)CC2)cc(C(F)(F)F)n1`, the “% Inhibition” value is reported as -11% and the Z score is reported as 1.88.
With `O=C(CN1CCCCCC1)N1CCC[C@H](OCc2noc(-c3ccncc3)n2)C1` the “% Inhibition” value was -7% and the Z score was 1.29.
`CCCOCC(=O)Nc1c(OC)ccnc1OC` was tested, and the “% Inhibition” value was -18% and the Z score was 3.11.
With `Cc1ccnc(NCCCNc2cccnc2)n1` the “% Inhibition” value was -4% and the Z score was 0.78.
With `c1ccc(-c2ccc(CN3CCCC3)cc2)c(CN2CCOCC2)c1` the “% Inhibition” value was -9% and the Z score was 2.01.
With `COc1ccc2cc(NC(=O)c3cc(-c4c(C)nn(C)c4C)[nH]n3)cnc2c1` the “% Inhibition” value was 41% and the Z score was -7.15.
For `CN(C)CCCOC1CCN(C(=O)c2cnc3[nH]ccc3c2)CC1`, the “% Inhibition” value was 0% and the Z score was 0.02.
In the case of `CCCc1cc(N2CCC(NCCCn3ccnc3)CC2)nc(C)n1`, the “% Inhibition” value is reported as -6% and the Z score is reported as 1.15.
In the case of `CCN(CC)CCOc1ccccc1-c1[nH]c2ccccc2c1Cc1ccccc1`, the “% Inhibition” value is reported as 2% and the Z score is reported as -0.39.
With `CCOc1ccccc1Nc1cc(C(=O)OC)nc2c(OC)cccc12` the “% Inhibition” value was 2% and the Z score was -0.33.
`COc1cccc(N[C@@H](CNc2nn3c(=O)ccnc3s2)C(C)(C)C)c1` was tested, and the “% Inhibition” value was -8% and the Z score was 1.42.
With `Cc1ncsc1C(=O)N1CC(C(=O)O)CC(c2cnn(C)c2)C1` (stereo unspecified) the “% Inhibition” value was 1% and the Z score was -0.23.
`CC(C)C[C@H](NC(=O)Nc1ccc2scnc2c1)c1ncnn1C` was tested, and the “% Inhibition” value was -3% and the Z score was 0.59.
For `CN1CCc2cc(CNC3CCN(c4ccc(C(=O)N5CCC[C@H](CO)C5)cc4)CC3)ccc21`, the “% Inhibition” value was -15% and the Z score was 2.63.
With `Cc1csc2nc(=O)c(-c3ccccc3NC(=O)c3ccc4cc[nH]c4c3)nn12` the “% Inhibition” value was 2% and the Z score was -0.27.
For `COCCN1CC[C@H](Nc2cc(C(F)(F)F)nc(-c3cccnc3)n2)C1`, the “% Inhibition” value was -3% and the Z score was 0.52.
In the case of `C[C@@H](CCNc1cnccn1)N1CCN(C)CC1`, the “% Inhibition” value is reported as -4% and the Z score is reported as 0.77.
With `CC(C)(C)C(=O)N1CCOc2ccc(Nc3nc4ccccc4s3)cc21` the “% Inhibition” value was -1% and the Z score was 0.26.
With `OC1CCC(CNc2ccc3nnc(-c4ccsc4)n3n2)C1` (stereo unspecified) the “% Inhibition” value was -11% and the Z score was 1.91.
For `Cc1cccc(N2CCC(NCC[C@H]3CCCCN3S(C)(=O)=O)CC2)c1C`, the “% Inhibition” value was -3% and the Z score was 0.72.
With `Cc1nnc(-c2cccc(-c3ccc(C(=O)N4CCNCC4)cc3)c2)s1` the “% Inhibition” value was -7% and the Z score was 1.41.
`COc1cccc2c1CCN(C[C@@H](O)Cc1ccccc1)CC2` was tested, and the “% Inhibition” value was 6% and the Z score was -1.23.
In the case of `CCS(=O)(=O)c1ccccc1NCc1cn(C)nc1C(F)(F)F`, the “% Inhibition” value is reported as -16% and the Z score is reported as 2.76.
With `CN1CCN(CCCN(C)c2cnc3ccccc3n2)CC1` the “% Inhibition” value was 2% and the Z score was -0.33.
`OC[C@H]1CCCN(CCNc2ncnc3[nH]ccc23)C1` was tested, and the “% Inhibition” value was 0% and the Z score was 0.07.
With `Cc1cc(N2CCC(N(C)Cc3ccc4nsnc4c3)CC2)nc(N)n1` the “% Inhibition” value was 18% and the Z score was -3.91.
With `c1cc(-c2cc(C3CCN(C[C@H]4COCCO4)CC3)n[nH]2)ccn1` the “% Inhibition” value was -1% and the Z score was 0.18.
In the case of `COc1ccc(NC2(C(=O)N3CCC([C@H](C)N4CCN(C)CC4)CC3)CCCCC2)cc1`, the “% Inhibition” value is reported as -9% and the Z score is reported as 1.59.
In the case of `O[C@@H](CNc1nc(-c2ccncc2)nc2ccccc12)COc1cccc(Cl)c1Cl`, the “% Inhibition” value is reported as 0% and the Z score is reported as 0.01.
In the case of `CCc1ccc2nc(C)cc(C(=O)N(C)Cc3noc(C4CCC4)n3)c2c1`, the “% Inhibition” value is reported as 1% and the Z score is reported as -0.24.
With `CN1CCC(N2CCC(NC(=O)c3ccncn3)CC2)CC1` the “% Inhibition” value was -17% and the Z score was 2.56.
For `Cc1cc(N2CC[C@H](NC(=O)c3cccnc3N(C)C)C2=O)n(C)n1`, the “% Inhibition” value was -7% and the Z score was 1.44.
In the case of `CC(C)Nc1ncc(C(=O)NCCN2CCC(c3ccccc3)CC2)cn1`, the “% Inhibition” value is reported as 2% and the Z score is reported as -0.3.
For `CC(C)N1CC[C@H](Nc2ncnc3[nH]ncc23)C1`, the “% Inhibition” value was -5% and the Z score was 0.99.
`Cc1cc(NC2CCCCC2)c2cc(Cl)ccc2n1` was tested, and the “% Inhibition” value was 19% and the Z score was -3.83.
With `Cn1cc(-c2nc([C@@H]3CCCCCN3C(=O)c3cc(F)cc4[nH]cnc34)no2)cn1` the “% Inhibition” value was -4% and the Z score was 0.79.
For `CCc1ccc(CS(=O)(=O)N2CCCc3occc3C2)cc1`, the “% Inhibition” value was -11% and the Z score was 1.72.
In the case of `COc1ccc(-c2noc(CCc3nnc4ccc(N5CCN(C6CCCCC6)CC5)nn34)n2)cc1`, the “% Inhibition” value is reported as -3% and the Z score is reported as 0.44.
With `CC(C)(C)[C@H](Cn1ccnc1)NC(=O)c1ccc(F)c2cccnc12` the “% Inhibition” value was 0% and the Z score was 0.07.
`O=C(c1ccnc2[nH]nnc12)N1CCC[C@H](Nc2ccccc2)C1` was tested, and the “% Inhibition” value was 3% and the Z score was -0.67.
`CCN1CCN([C@@H](C)CNc2ncnc3sccc23)CC1` was tested, and the “% Inhibition” value was -8% and the Z score was 1.53.
In the case of `COc1cc(=O)n2c(c1C(=O)N1CCCC1)CCN(Cc1cccc3ncccc13)CC2`, the “% Inhibition” value is reported as -3% and the Z score is reported as 0.57.
`OC1CCC(Nc2cnc3cc(F)c(F)cc3n2)CC1O` (stereo unspecified) was tested, and the “% Inhibition” value was -4% and the Z score was 0.89.
`CCNc1cc(C)nc(NCCNC(=O)c2cc(-n3cccn3)nc(C)n2)n1` was tested, and the “% Inhibition” value was -1% and the Z score was 0.15.
`O=C([C@@H]1CC2(CCNCC2)CN1)N(Cc1cccnc1)C1CCNCC1` was tested, and the “% Inhibition” value was 2% and the Z score was -0.26.
With `CCc1cc(NC(=O)N[C@H](c2nccn2C)C(F)(F)F)no1` the “% Inhibition” value was -5% and the Z score was 0.83.
For `CC(C)N1CC[C@H](N2CCC(Oc3ncc(F)cn3)CC2)C1=O`, the “% Inhibition” value was 5% and the Z score was -0.91.
With `CC[C@H]1CN(C(=O)c2cccc(-c3cncc(C(C)(C)O)c3)c2)CCN1` the “% Inhibition” value was 2% and the Z score was -0.31.
With `Fc1cc2ncnc(N3CCC[C@H]3c3nc4cc(Cl)ccc4[nH]3)c2cc1F` the “% Inhibition” value was -4% and the Z score was 0.9.
For `O=S(=O)(Nc1ccc(Nc2cc(-n3cccn3)ncn2)cc1)c1cccnc1`, the “% Inhibition” value was 2% and the Z score was -0.26.
For `O=C(NC1CCc2ncnn2C1)N1CC[C@@H](Oc2ccncc2)C1` (stereo partly specified), the “% Inhibition” value was -9% and the Z score was 1.52.
With `Nc1nc2c(c(N3CCC(O)(c4cccnc4)CC3)n1)CCNCC2` the “% Inhibition” value was 8% and the Z score was -1.42.
For `CN(Cc1nccc(N)n1)[C@H]1CCCN(Cc2cccc3[nH]ccc23)CC1`, the “% Inhibition” value was -5% and the Z score was 1.12.
For `CN1CCN(c2ccc(NCc3cc(C#N)cs3)cn2)CC1`, the “% Inhibition” value was -7% and the Z score was 1.29.
With `COc1ccc(-c2c(-c3ccccc3)ncn2C[C@H](O)c2cccnc2)c(F)c1` the “% Inhibition” value was 12% and the Z score was -2.14.
With `Cn1ccc2cc(CN3CCC(Oc4ccncc4)CC3)ccc21` the “% Inhibition” value was 6% and the Z score was -1.37.
With `CN1CCCCC1CN1CCN(C(=O)c2cnn(C3CCCNC3)c2)CC1` (stereo unspecified) the “% Inhibition” value was 0% and the Z score was 0.01.
For `Cc1cc(C)c2nccc(N3CC(CO)C(CN4CCC(CO)CC4)C3)c2c1` (stereo unspecified), the “% Inhibition” value was 3% and the Z score was -0.46.
In the case of `OC1CCN(c2cc(N3CCCN(C4CCCC4)CC3)ncn2)CC1`, the “% Inhibition” value is reported as -10% and the Z score is reported as 1.67.
`CCN(CCN1CCOCC1)Cc1cnc(-c2ccco2)nc1` was tested, and the “% Inhibition” value was -3% and the Z score was 0.59.
With `c1ccc2c(CCNc3nc(N4CCCC4)c4nn[nH]c4n3)c[nH]c2c1` the “% Inhibition” value was 5% and the Z score was -0.9.
In the case of `O=C(c1ccc(N2CCN[C@H](c3ccccc3)C2)nc1)N1CCCN(c2ncccn2)CC1`, the “% Inhibition” value is reported as -3% and the Z score is reported as 0.6.
With `CN1CCN(CC2CCN(C(=O)c3cccc(-c4cncnc4)c3)CC2)CC1` the “% Inhibition” value was -1% and the Z score was 0.12.
`CCOC(=O)c1cncc(-c2ccc(NCC3CCOCC3)nc2)c1` was tested, and the “% Inhibition” value was -3% and the Z score was 0.43.
`COc1ccc(C(=O)O)nc1-c1ccc(CN(C)C)cc1` was tested, and the “% Inhibition” value was 2% and the Z score was -0.47.
For `COc1ccccc1CCC(=O)Oc1ccc(Cl)c2cccnc12`, the “% Inhibition” value was -11% and the Z score was 1.88.
In the case of `Cc1cc(C(=O)N[C@H]2CC[C@@H](CO)CC2)cc(NCC(F)(F)F)n1`, the “% Inhibition” value is reported as -5% and the Z score is reported as 0.69.
For `O=C(c1cc2occc2[nH]1)N1CCC[C@H](CN2CCOCC2)C1`, the “% Inhibition” value was 1% and the Z score was -0.15.
With `COc1ccccc1-c1ccc(-c2ccc(O)c(OC(F)(F)F)c2)nn1` the “% Inhibition” value was 10% and the Z score was -2.07.
In the case of `CCN1CCC[C@@H]1CNC(=O)CCC1CCN(Cc2cc(O)c3ccccc3n2)CC1`, the “% Inhibition” value is reported as 2% and the Z score is reported as -0.31.
`CC(=CCNC(=O)OC(C)(C)C)C(=O)NC(C)(C)CCCN(C)C` was tested, and the “% Inhibition” value was -2% and the Z score was 0.38.
In the case of `O=C(NCc1nncn1C1CCCCC1)c1cncc(O)c1`, the “% Inhibition” value is reported as -5% and the Z score is reported as 0.96.
In the case of `Cc1cccc([C@@H](NC(=O)c2ccc(C#CC(C)(C)O)o2)C(=O)O)c1`, the “% Inhibition” value is reported as -2% and the Z score is reported as 0.35.
In the case of `c1cc(CN2CCN(CC3CCCC3)CC2)c2cccnc2c1`, the “% Inhibition” value is reported as -1% and the Z score is reported as 0.15.
For `COCCN1CC[C@H](CN2CCN(c3ccncc3C)CC2)C1`, the “% Inhibition” value was 11% and the Z score was -1.86.
For `CC(C)CNC(=O)c1cc(NC(=O)CCc2ccn(C)n2)ccc1Cl`, the “% Inhibition” value was -5% and the Z score was 0.83.
With `Cc1cc(N2CCC(NCCCc3ncc[nH]3)CC2)nc(N2CCCC2)n1` the “% Inhibition” value was -11% and the Z score was 1.85.
`Cc1ccc(-c2csc(-n3nc(C)cc3NC(=O)C(=O)c3c[nH]c4ccccc34)n2)cc1` was tested, and the “% Inhibition” value was -4% and the Z score was 0.6.
For `O=C([C@@H]1CC[C@H](Nc2ccnc(N3CCOCC3)n2)C1)N1CCCC1`, the “% Inhibition” value was -4% and the Z score was 0.63.
In the case of `CC1CCCCN1CC1CCCN(CC2CCN(C(=O)OC(C)(C)C)C2)C1` (stereo unspecified), the “% Inhibition” value is reported as -5% and the Z score is reported as 0.98.
`CN1CCC(CN2CCN(c3cc([C@H]4C[C@@H](O)C4)ncn3)CC2)CC1` was tested, and the “% Inhibition” value was -6% and the Z score was 0.92.
For `COc1cc(Br)c2nc(N3CCN(C4CCCC4)CC3)nc(N)c2c1`, the “% Inhibition” value was 1% and the Z score was -0.22.
